# In PubChem BioAssay AID624296 (National Center for Advancing Translational Sciences (NCATS), 2012):
# Hit rate of the full screen: of about 350,000 compounds, about 9,900 (2.8%) were called active. Inconclusive results, whose numbers are uncertain, are shown with a selection of clear calls. Calls come from the whole dose curve; as a rule, active = well fitted activation curve with a large enough effect; inconclusive = small, poorly fitted or top-dose-only effect; inactive = no such curve, though single readings can be large or run the other way. Potencies of inconclusive entries are left out as doubtful fits.
# Experiment: A quantitative high throughput screen for small molecules that induce DNA re-replication in MCF 10a normal breast cells. For activity, positive = re-replication: % of control where 0% means no effect. Note: nearly all actives have a fitted effect of over 50% in size.
# Details: MCF 10A DNA re-replication, Hoechst nuclear intensity, 48 h; activity, positive = re-replication: at 46.1 µM (top of the series)
# Potency is the fitted concentration of half-maximal effect; tags give direction and shape of the fitted curve.
Structure (SMILES),Potency,"activity, positive = re-replication"
O=C(Nc1ccc(-c2nc3ccccc3o2)cc1)c1ccc(N2C(=O)C3C4C=CC(C4)C3C2=O)cc1 (stereo not given),"inconclusive [activator, single point]",
N#Cc1c(-c2ccncc2)c2c([nH]c1=S)CCCC2,"inconclusive [activator, partial curve, poor fit]",
O=C(Nc1ccc(F)cc1)Nc1ccccc1NS(=O)(=O)c1cccs1,,inactive: 7.34%
COc1ccc(-c2cc(C(F)F)nn2-c2ccc(S(N)(=O)=O)cc2)cc1F,,inactive: -2.77%
CCSc1nsc(NC(=O)Nc2cccc(OC)c2)n1,,inactive: 1.83%
COc1ccc(C2CC(c3ccc(Cl)cc3)Nc3nc(NC(=O)c4ccco4)nn32)cc1 (stereo not given),"inconclusive [activator, single point]",
CCN(CC)c1c(-c2ccccc2)c2cc(C)ccc2[nH]c1=O,"inconclusive [activator, partial curve, poor fit]",
Cc1c(CCOC(=O)c2ccccc2)sc[n+]1Cc1ccccc1,"inconclusive [activator, partial curve, poor fit]",
CCC(=O)c1ccc(OCC(O)CN2CCN(c3cccc(C(F)(F)F)c3)CC2)cc1 (stereo not given),"inconclusive [activator, partial curve, poor fit]",
CC(=O)Nc1ccc(NC(=S)NC(=O)c2cc3ccccc3o2)cc1,,inactive: 2.85%
CCCC1=NN2C(=N)/C(=C\c3cc(C)n(-c4cccc(C)c4)c3C)C(=O)N=C2S1,"inconclusive [activator, single point]",
CCOC(=O)c1cc(C#N)c(N)nc1C,"inconclusive [activator, partial curve, poor fit]",
CC1C(=O)C(C)C(c2ccc([N+](=O)[O-])cc2)NC1c1ccc([N+](=O)[O-])cc1 (stereo not given),"inconclusive [activator, single point]",
CCCCCCSc1ccc(-c2nc3ccc(C)cn3c2NC2CCCCC2)cc1,"inconclusive [activator, single point]",
CC1=C(C(=O)OCc2ccc3c(c2)OCO3)C(c2ccc(F)cc2)NC(=O)N1 (stereo not given),,inactive: 2.43%
COc1ccc2c(-c3ccccc3)cc(N3CCOCC3)nc2c1,active: 20.6 µM,
CCN(CC(=O)Nc1ccccc1C(F)(F)F)C(=O)c1cc2c(s1)CCCCC2,"inconclusive [activator, single point]",
O=C(COc1coc(CN2CCc3ccccc3C2)cc1=O)Nc1ccc(F)cc1F,,inactive: 12.2%
CCc1ccc(C(=O)COC(=O)CNC(=O)c2ccc(N3C(=O)c4ccccc4C3=O)cc2)cc1,"inconclusive [activator, partial curve, poor fit]",
COc1cc(OC)c(C(=O)OC(C)C(=O)NCc2ccc3c(c2)OCO3)cc1OC (stereo not given),,inactive: -15%
CCC1(c2ccccc2)NC(=O)N(CC(=O)N(C)Cc2c(F)cccc2Cl)C1=O (stereo not given),,inactive: 0.482%
Cc1ccc2nc(-c3ccncc3)cc(-c3ccccc3)c2c1,"inconclusive [activator, single point]",
O=C(Nc1cccc(Cl)c1N1CCCC1)c1ccc(Br)o1,"inconclusive [activator, partial curve, poor fit]",

Structure (SMILES),Potency,"activity, positive = re-replication"
Cc1ccccc1CN1CCC(n2nccc2NC(=O)CCOc2ccccc2)CC1,,inactive: 0.711%
O=C1NC(c2ccccc2Cl)=N/C1=C/c1ccco1,"inconclusive [activator, single point]",
COc1cccc(C(=O)OCC(=O)c2c[nH]c3ccccc23)c1O,"inconclusive [activator, single point]",
CC(C)(C)NC(=O)c1cnn2c1NC(c1ccc(F)cc1)CC2C(F)(F)F (stereo not given),"inconclusive [activator, single point]",
COc1ccc(C(=O)c2nccc3ccccc23)cc1,"inconclusive [activator, single point]",
CCc1cc(C(=O)OCC(=O)N2CCC(c3ccccc3)=N2)sc1C,,inactive: 6.07%
CCC(C)C(=O)Nc1nc(C)c(-c2csc(Nc3ccc(Cl)cc3)n2)s1 (stereo not given),"inconclusive [activator, single point]",
COc1nc(C)ccc1-c1noc(-c2cccnc2)n1,"inconclusive [activator, single point]",
CN1CCN(C(=O)CSc2nc(-c3cccs3)ccc2C#N)CC1,"inconclusive [activator, single point]",
Cc1ccc(C(OCC(O)CNCc2ccc(F)cc2)c2ccccc2)cc1 (stereo not given),active: 2.59 µM,
COc1cc2c(cc1OC)C(c1cccs1)N(C(=O)c1cccc(S(=O)(=O)N(C)C)c1)CC2 (stereo not given),,inactive: -4.21%
CCN1CCOC(CC(=O)Nc2ccc([N+](=O)[O-])cc2)C1=O (stereo not given),,inactive: 3.8%
COc1ccc(-c2nc3cc(C)ccn3c2NC2CCCCC2)cc1SC1CCCCC1,"inconclusive [activator, partial curve, poor fit]",
CCOC(=O)C1(Cc2cccc(OC)c2)CCN(Cc2cccc(OC)c2OC)CC1,"inconclusive [activator, partial curve, poor fit]",
OC1=C(O)c2nc3cc(C(F)(F)F)ccc3nc21,,inactive: 12.9%
Cc1ccccc1Nc1n[nH]c(C)c1[N+](=O)[O-],,inactive: 22.7%
Cc1cc(Br)ccc1NC(=O)C(C)c1ccc([N+](=O)[O-])cc1 (stereo not given),,inactive: 14.6%
Cc1cc(C)n2c(SCC(=O)Nc3ncc(C(F)(F)F)cc3Cl)nnc2n1,"inconclusive [activator, full curve, poor fit]",
COCCn1c(-c2ccc(OC(F)(F)C(F)C(F)(F)F)cc2)nc2c1c(=O)[nH]c(=O)n2CC(C)C (stereo not given),"inconclusive [activator, single point]",
O=C(O)C1=NN(c2cc(Cl)c(S(=O)(=O)O)cc2Cl)C(=O)C1,,inactive: 1.42%
CCOc1nc(SCCOc2ccccc2)nc(N(C)C)n1,"inconclusive [activator, partial curve]",
O=C(Nc1ccc(S(=O)(=O)N2CCOCC2)cc1)C1CC1,,inactive: 0.622%
